Results on two compounds are retold here after patent US10287311B2, “Modified fluorinated nucleoside analogues” (priority 2003, dated 2019).

By EC90 is commonly meant the concentration at which the effect reaches the 90% level. A higher EC90 goes with weaker potency.

In test [1] the test system is 1b (Ntat) replicon. Nature of the test: microbe, parasite or virus in culture. The following applies: Hepatitis C virus.
Test [2] has as its system 1b (Btat) replicon. The test can be described thus: microbe, parasite or virus in culture. The conditions noted are these: Hepatitis C virus.

Structures are written as SMILES.

Take `C[C@@]1(F)[C@H](O)[C@@H](CO)O[C@H]1n1ccc(N)nc1=O`: the EC90 was determined as 3.8 µM in test [1] and 11.5 µM in test [2].
Regarding `C[C@@]1(O)[C@H](O)[C@@H](CO)O[C@H]1n1ccc(N)nc1=O` [2′-C-methylcytidine, reference compound], the concentration for an effect of 90% (EC90) in test [1] came out at 27.2 µM; in test [2], 31.1 µM.
